Test results published in PubChem BioAssay AID1240 (Sanford-Burnham Center for Chemical Genomics, 2008).
The campaign covered roughly 50,000 compounds. About 800 (1.6%) showed an effect of 50% or more. This is one part of the list.

Target: Bcl-2-like protein 10 (Homo sapiens) (UniProt Q9HD36)
Assay: Phenotype converters, Bcl-B/TR3 peptide binding displacement, primary biochemical FP (AID 1240);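 note: 0% = Bcl-B with tracer peptide and DMSO and 100% = tracer peptide lacking Bcl-B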
Conditions: GST-Bcl-B / FITC-TR3 peptide fluorescence polarization; stronger effect = higher value; compound at 3.75 mg/L

Sequence of UniProt Q9HD36 (Q9HD36 whole entry, looked up): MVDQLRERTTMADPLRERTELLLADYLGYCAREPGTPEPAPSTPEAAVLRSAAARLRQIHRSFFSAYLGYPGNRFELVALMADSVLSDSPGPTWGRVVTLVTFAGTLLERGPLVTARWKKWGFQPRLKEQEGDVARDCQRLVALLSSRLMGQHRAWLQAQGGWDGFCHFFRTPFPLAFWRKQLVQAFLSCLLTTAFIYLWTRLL

SMILES | displacement
C=CCNC1=C(Cl)C(=O)N(c2cccc(Cl)c2Cl)C1=O | 13.2%
COc1cc(/C=C2/SC(=S)NC2=O)ccc1OC(=O)c1ccccc1Br | 3.3%
Cc1ccsc1/C=C1\C(=O)NC(=O)N(c2ccc(Cl)cc2)C1=O | 18.5%
CCOc1ccc(C(=O)Nc2cc(=O)n(C)c(=O)n2C)cc1 | 12.2%
CC(=O)CCc1oc2c(Br)cc(Br)cc2c1-c1ccc(C)o1 | -6.5%
C=CCNC(=O)c1ccc(-c2ccc([N+](=O)[O-])cc2)o1 | 16.8%
COc1ccc(OC(C)C(=O)Nc2cccc(OC)c2)cc1 (stereo not drawn) | 7.7%
CCc1nn2c(N)c(/C=C3/C=Nc4ccccc43)c(=O)nc2s1 | 16.4%
COc1ccc(/C=C2/SC(=O)NC2=O)c2ccccc12 | -0.8%
COc1ccc(-c2cc(C(F)(F)F)n3nc(C(=O)NCCCn4ccnc4)c(Cl)c3n2)cc1 | 105%
CC(C)(C)c1cc(C(=O)N/N=C/c2ccccc2Cl)n[nH]1 | 15.8%
CCc1ccc(-c2csc(NC(=O)C3C4CCC(C4)C3C(=O)O)n2)cc1 (stereo not drawn) | -7.2%
O=C(CCCN1C(=O)c2ccccc2C1=O)Nc1ccccc1C(=O)N1CCCCC1 | -2.2%
O=C(c1ccc(Br)cc1)c1ccc2c(c1)OCCO2 | 4.8%
Cc1cc(C)c2nc3s/c(=C\c4cc5c(cc4Br)OCO5)c(=O)n3c2c1 | -8.5%
COC(=O)c1c(C)oc2cc(Br)c(OCC(=O)c3ccc(OC)cc3)cc12 | 14%
O=C1C(Cl)=C(Nc2ccc(F)cc2)C(=O)N1c1cccc(Cl)c1 | 8.9%
COc1ccccc1C(=O)N=Nc1c(O)n(C)c2ccccc12 | 7.1%
O=C(Nc1ccccc1)Nc1ccc(NC(=O)Nc2ccccc2)cc1 | 5.1%
O=C(/C=C\Nc1ccc2c(c1)OCO2)c1cccs1 | 5.1%
CCC(C(=O)Nc1ccc(OC)cc1OC)c1ccccc1 (stereo not drawn) | 1.7%
COc1c(Cl)cc(-c2nc3cc(NC(=O)C(C)C)ccc3o2)cc1Cl | -12.7%
Cc1ccc(S(=O)(=O)NCCNc2ccc(Cl)cc2[N+](=O)[O-])cc1 | 0.1%

SMILES | displacement
N#CCCS(=O)(=O)c1cc(Cl)ccc1Cl | -0.6%
COc1ccccc1CNC(=O)Cc1ccc(Cl)cc1 | 0.4%
Cc1ccc(C2=C/C(=C/c3cc4c(cc3[N+](=O)[O-])OCO4)C(=O)O2)cc1 | -7.1%
COc1ccc(C(=O)Nc2ccc(S(=O)(=O)Nc3nccnc3OC)cc2)cc1OC | 6.3%
Cc1ccc(N2CC(C(=O)NCC3CCCO3)CC2=O)cc1 (stereo not drawn) | 5.2%
O=C(Nc1cccc2c1C(=O)c1ccccc1C2=O)c1ccc(Br)cc1 | 1%
CC[n+]1c(/C=C/c2ccc(-c3ccc([N+](=O)[O-])cc3)o2)ccc2ccccc21 | -127%
C=C(C)Cn1c(=S)[nH]c2sc3c(c2c1=O)CC(C)(CC)OC3 (stereo not drawn) | -11.5%
COC(=O)c1ccc(/C=N/NC(=O)CCC2C(=O)NN=C2C)cc1 (stereo not drawn) | -9.5%
O=C1N/C(=C/c2ccc(Br)cc2)C(O)=C1C=NCc1ccccc1 | -4.1%
COc1ccc(C(=O)N2CCN(C3C4CC5CC(C4)CC3C5)CC2)cc1 (stereo not drawn) | 11.6%
COc1ccc(OCC(=O)NNC(=O)c2ccccc2C)cc1 | 2.6%
COc1ccc(CN2CCN(C(=O)c3cccc(Cl)c3)CC2)cc1OC | -0.4%
CC/C(=C\C(=O)c1ccccc1)Nc1ccc(Br)cc1 | 0.3%
O=C(NCCO)/C(=C\c1ccc(Br)cc1)NC(=O)c1ccccc1 | -0.9%
O=C1NC(=O)C(=Cc2cc(Cl)c(OCc3cccc(F)c3)c(Cl)c2)C(=O)N1 | -6.4%
O=C(CCC1C(=O)OCN1C(=O)OCc1ccccc1)ONc1ccc([N+](=O)[O-])cc1 (stereo not drawn) | 3.6%
CCOC(=O)C1=C(C)N=c2s/c(=C\c3cccc(OC)c3)c(=O)n2C1c1ccc(C)cc1 (stereo not drawn) | 2.3%
CCOC(=O)C(CC)Oc1ccc2ccc(=O)oc2c1 (stereo not drawn) | -0.6%
O=C1c2ccccc2C(=O)N1CCCc1nc2ccccc2c(=O)n1Cc1ccccc1 | -10%
O=C1NC(=O)N(c2ccccc2)C(=O)/C1=C\c1ccc(-c2cccc([N+](=O)[O-])c2)o1 | 39.3%
NC1=C(Nc2cccc3ccccc23)C(=O)c2ccccc2C1=O | 6.7%
COc1ccccc1N1C(=O)/C(=C/C(C)=C/c2ccccc2)SC1=S | -1.1%

SMILES | displacement
Cc1ccc(C2(c3ccc(C)cc3)CC2C(=O)Nc2ccc([N+](=O)[O-])cc2O)cc1 (stereo not drawn) | 5.8%
Cc1ccc(S(=O)(=O)n2cnc(C)c2)cc1 | 11.4%
CC(NS(=O)(=O)c1cccc([N+](=O)[O-])c1)C1C2CC3CC(C2)CC1C3 (stereo not drawn) | 6.9%
CCC(=O)Nc1ccc2oc(-c3cccnc3)nc2c1 | 13.8%
O=S(=O)(N/N=C/c1ccccc1C(F)(F)F)c1ccc(Cl)cc1 | 10.6%
CC1(C)NC(=O)N(CC(O)CN(c2ccccc2)c2ccccc2)C1=O (stereo not drawn) | -10.5%
CCOC(=O)C(=O)N1c2ccccc2CCc2ccccc21 | 0.6%
O=C(c1cnn2c1NC(c1cccs1)CC2C(F)(F)F)N1CCOCC1 (stereo not drawn) | -1.3%
CCCOc1ccc(C(=S)N2CCN(c3cccc(Cl)c3)CC2)cc1 | 17.9%
O=C(c1ccccc1F)N1CCN(c2ccc([N+](=O)[O-])c3ncccc23)CC1 | 12.1%
Cc1cc(C2(c3cc(C)c(NC(=O)CN4CCCCC4)c(C)c3)CCCCC2)cc(C)c1NC(=O)CN1CCCCC1 | -8.8%
O=C(NC1C2CC3CC(C2)CC1C3)c1cccc(I)c1 (stereo not drawn) | 11.7%
CC1CCN(c2cc(N3CCN(C(=O)c4ccc(F)c(F)c4)CC3)c([N+](=O)[O-])cc2F)CC1 | -13.7%
COc1cccc(-n2c(C=C3C(=O)Nc4ccc(C)cc43)nc3ccccc3c2=O)c1 | 7.5%
COc1ccc(CCNS(=O)(=O)c2ccc([N+](=O)[O-])cc2)cc1 | 5.7%
CCOC(=O)C1=C(C)N=c2s/c(=C\c3cccs3)c(=O)n2C1c1ccc(OCC)cc1 (stereo not drawn) | 7.8%
CCCC(=O)Nc1cc(-c2nc3ncccc3o2)ccc1C | 4.5%
O=C(NCC1COc2ccccc2O1)c1ccco1 (stereo not drawn) | -7.3%
O=C(CCN1C(=O)c2ccccc2C1=O)NCC1CCCO1 (stereo not drawn) | 9.6%
COc1cccc(-c2nc3sc(C)c(C)c3c(=O)[nH]2)c1O | 28.7%
O=C(CSc1nnc2n(Cc3ccccc3)c(=O)c3c4c(sc3n12)CCCC4)c1ccccc1 | -2.9%
O=C(/C=C/c1ccc(Cl)cc1)Nc1cccc([N+](=O)[O-])c1 | -8.2%
